Measured values reported in the supplement of paper PMC12067230.
This is a noisy data set.

Test: amyloid nucleation score relative to library mode (yeast Sup35 reporter selection) (log enrichment difference); higher = more amyloid nucleation; sequences are the first 22 residues of the Bri2 peptide extended by up to 12 random residues
Settings: random library (experiment): 1;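 active = nucleation score significantly above 0 at FDR 0.05; inactive = not significantly above 0 or absent from output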
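Note: [psi-pin-] Saccharomyces cerevisiae expressing SupN fusions, induced by 100 µM Cu2SO4, selected 7 d at 30 °C without adenine and uracil, scored by deep sequencing of output versus input.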

| Sequence | amyloid nucleation score |
| --- | --- |
| EASNCFAIRHFENKFAVETLICFRCVVEPLTMGC | 2.91 |
| EASNCFAIRHFENKFAVETLICFREAWSCALRGL | inactive |
| EASNCFAIRHFENKFAVETLICFRGARNMNQPNT | 3.02 |
| EASNCFAIRHFENKFAVETLICFRHDVLHRRWAE | 3.89 |
| EASNCFAIRHFENKFAVETLICFRHMLYFREITP | inactive |
| EASNCFAIRHFENKFAVETLICFRHVWCHALILA | inactive |
| EASNCFAIRHFENKFAVETLICFRIGCHVSRTAV | 3.15 |
| EASNCFAIRHFENKFAVETLICFRIGCTVVYWAV | inactive |
| EASNCFAIRHFENKFAVETLICFRIRMGRLKMVT | 0.165 |
| EASNCFAIRHFENKFAVETLICFRLCLGVSRMAK | inactive |
| EASNCFAIRHFENKFAVETLICFRLFRDRQQLLT | inactive |
| EASNCFAIRHFENKFAVETLICFRLLGIPMVVFS | inactive |
| EASNCFAIRHFENKFAVETLICFRLYAYVLEYTL | inactive |
| EASNCFAIRHFENKFAVETLICFRMVLDRFNPHV | inactive |
| EASNCFAIRHFENKFAVETLICFRMWYGSSNIG | inactive |
| EASNCFAIRHFENKFAVETLICFRNVVCNDGWHL | 0.498 |
| EASNCFAIRHFENKFAVETLICFRRMMVEDLLRR | -0.129 |
| EASNCFAIRHFENKFAVETLICFRRSTKLTRLRR | 1.29 |
| EASNCFAIRHFENKFAVETLICFRSRM | inactive |
| EASNCFAIRHFENKFAVETLICFRTVSVVVRWRW | inactive |

| Sequence | amyloid nucleation score |
| --- | --- |
| EASNCFAIRHFENKFAVETLICFRVFGLH | inactive |
| EASNCFAIRHFENKFAVETLICFRVLMRRLVVFC | inactive |
| EASNCFAIRHFENKFAVETLICFRVTSNVGRKGR | -0.399 |
| EASNCFAIRHFENKFAVETLICFRYCICGYDWMS | inactive |
| EASNCFAIRHFENKFAVETLICFRYDPSDRSCGC | 3.25 |
| EASNCFAIRHFENKFAVETLICFRYSFPIVCFVS | 4.27 |
| EASNCFAIRHFENKFAVETLICFS | inactive |
| EASNCFAIRHFENKFAVETLICFSALSSRNRLRE | 2.47 |
| EASNCFAIRHFENKFAVETLICFSANRVGLSPCR | inactive |
| EASNCFAIRHFENKFAVETLICFSCHWGT | 8.78 |
| EASNCFAIRHFENKFAVETLICFSDNPCERQRMF | 2.74 |
| EASNCFAIRHFENKFAVETLICFSDPNAMLMFVE | inactive |
| EASNCFAIRHFENKFAVETLICFSEFTRDRLAFP | 4.47 |
| EASNCFAIRHFENKFAVETLICFSELLPYFWS | -0.324 |
| EASNCFAIRHFENKFAVETLICFSFVTVARRTRP | 5.6 |
| EASNCFAIRHFENKFAVETLICFSGAPSVCRRPG | 4.12 |
| EASNCFAIRHFENKFAVETLICFSGGSLVSASVR | 0.664 |
| EASNCFAIRHFENKFAVETLICFSGPMRELRHEA | inactive |
| EASNCFAIRHFENKFAVETLICFSGWRLVLVRCG | 1.79 |
| EASNCFAIRHFENKFAVETLICFSHSIRHMESAV | 1.59 |

Same assay, conditions: random library (experiment): 2

| Sequence | amyloid nucleation score |
| --- | --- |
| EASNCFAIRHFENKFAVETLICFQVSLALESYC | inactive |
| EASNCFAIRHFENKFAVETLICFRAEI | inactive |
| EASNCFAIRHFENKFAVETLICFRFPTRGLSISQ | inactive |
| EASNCFAIRHFENKFAVETLICFRGMS | 1.74 |
| EASNCFAIRHFENKFAVETLICFRGNHNCSCGVN | 1.6 |
| EASNCFAIRHFENKFAVETLICFRHAFYADNSVI | 1.65 |
| EASNCFAIRHFENKFAVETLICFRLYSRR | 2.02 |
| EASNCFAIRHFENKFAVETLICFRMSGNEVAWSS | -0.0677 |
| EASNCFAIRHFENKFAVETLICFRPITFNHTVRT | 0.693 |
| EASNCFAIRHFENKFAVETLICFRRTQTCGFFDR | inactive |
| EASNCFAIRHFENKFAVETLICFRSNTSY | 2.26 |
| EASNCFAIRHFENKFAVETLICFRTHWQKVLW | 1.05 |
| EASNCFAIRHFENKFAVETLICFRTVNTV | inactive |
| EASNCFAIRHFENKFAVETLICFRVLYLFSYGIC | inactive |
| EASNCFAIRHFENKFAVETLICFRWKCGF | 2.92 |
| EASNCFAIRHFENKFAVETLICFRYMSYIELRLS | inactive |
| EASNCFAIRHFENKFAVETLICFSA | 5.23 |
| EASNCFAIRHFENKFAVETLICFSCIDKPSCSKC | 7.17 |
| EASNCFAIRHFENKFAVETLICFSCRDR | 8 |
| EASNCFAIRHFENKFAVETLICFSEHI | 1.89 |
| EASNCFAIRHFENKFAVETLICFSELGGCSYLFH | 4.18 |
| EASNCFAIRHFENKFAVETLICFSFITLRCCPDY | 6.29 |
| EASNCFAIRHFENKFAVETLICFSFVS | 8.72 |
| EASNCFAIRHFENKFAVETLICFSFVSSPDDRFL | 8.14 |
| EASNCFAIRHFENKFAVETLICFSFYYQGAFIGQ | 2.62 |
| EASNCFAIRHFENKFAVETLICFSGFMFGYLVYE | inactive |
| EASNCFAIRHFENKFAVETLICFSGRTMNYAV | inactive |
| EASNCFAIRHFENKFAVETLICFSHMCLYLTGDL | inactive |

Same assay, conditions: random library (experiment): 3

| Sequence | amyloid nucleation score |
| --- | --- |
| EASNCFAIRHFENKFAVETLICFRCDLFSAFLLR | 6.28 |
| EASNCFAIRHFENKFAVETLICFRIDLNVSCRED | 5.71 |
| EASNCFAIRHFENKFAVETLICFRKILDLYPLVS | inactive |
| EASNCFAIRHFENKFAVETLICFRLSSYLDDPAN | inactive |
| EASNCFAIRHFENKFAVETLICFRMLAAF | inactive |
| EASNCFAIRHFENKFAVETLICFRMLNPLSEISL | inactive |
| EASNCFAIRHFENKFAVETLICFRPCRGGHDCLD | 3.35 |
| EASNCFAIRHFENKFAVETLICFRPVVDQPDECG | inactive |
| EASNCFAIRHFENKFAVETLICFRRLKKLSCEAL | inactive |
| EASNCFAIRHFENKFAVETLICFRSMNSMLWFGC | inactive |
| EASNCFAIRHFENKFAVETLICFRTA | 2.25 |
| EASNCFAIRHFENKFAVETLICFRVNTALVSCYF | inactive |
| EASNCFAIRHFENKFAVETLICFRVYRLVSCALW | inactive |
| EASNCFAIRHFENKFAVETLICFRYPDRY | 4.06 |
| EASNCFAIRHFENKFAVETLICFSAIY | 7.41 |
| EASNCFAIRHFENKFAVETLICFSCLGNAMSVTG | 8.11 |
| EASNCFAIRHFENKFAVETLICFSDASGGVRRGS | 4.06 |
| EASNCFAIRHFENKFAVETLICFSDTLWIAETCL | inactive |
| EASNCFAIRHFENKFAVETLICFSEW | 5.27 |
